Results: PubChem BioAssay AID1347073 (National Center for Advancing Translational Sciences (NCATS), 2019)
Out of some 45,000 compounds screened, about 200 (0.44%) were called active. About 7% were inconclusive and are not listed. Calls follow the shape of the dose curve; as a rule, active = well fitted activation curve with a large enough effect; inconclusive = small, poorly fitted or top-dose-only effect; inactive = no such curve, though single readings can be large or run the other way. This is one part of the list.

test: qHTS of TDP-43 Inhibitors: NCGC Sytravon Library Screen; conditions: yeast TDP-43 toxicity rescue, BacTiter-Glo growth, 24 h; series mostly up to 46.1 µM; growth rescue (activation): at the top concentration; also: 0% is about no effect; nearly all actives have a fitted effect of over 55% in size
In short: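 TDP-43-expressing yeast, pregrown in raffinose, seeded at OD600 0.02 in galactose medium with compound for 24 hr at 30 deg C. Growth read by BacTiter-Glo luminescence, so rescue of toxicity appears as activation.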

Compound	growth rescue (activation)
O=C(COC(=O)Cc1ccc(Cl)cc1Cl)NC1CC1	inactive: 18.5%
CC(C)CCN(C(=O)CNC(=O)c1cccs1)C(C(=O)NC1CCCCC1)c1cccnc1 (centres undefined)	inactive: -5.22%
O=C(COC(=O)c1ccccc1)Nc1cccc(S(=O)(=O)N2CCOCC2)c1	inactive: -14.5%
O=C1NCCN(Cc2ccc(F)cc2)C1CC(=O)N1CC=C(c2ccccc2)CC1 (centres undefined)	inactive: 6.72%
O=C(CCc1ccccc1)Nc1nc2c(F)cc(F)cc2s1	inactive: 11.9%
CCC(NC(=O)c1cc(COc2ccc(Cl)cc2OC)on1)c1ccncc1 (centres undefined)	inactive: 7.79%
CCC(NC(=O)c1ccccc1NC(=O)C(C)(C)C)C(=O)N1CC(C)OC(C)C1 (centres undefined)	inactive: 7.71%
COc1ccc(CC(N)c2csc(Nc3cc(NCCCO)ncn3)n2)cc1 (centres undefined)	inactive: 0.597%
CCc1cc(C(=O)OC)c(NC(=O)CC2SC(=NC)N(C)C2=O)s1 (centres undefined)	inactive: 2.55%
Cc1nc2ccc(C(=O)Nc3ccc4c(c3)OCC(=O)N4)cn2c1N(C)C(=O)CCc1ccccc1	inactive: 5.44%
COc1ccc(C(=O)N/N=C(\N)c2cc3ccccc3oc2=O)cc1	inactive: -8.21%
Cc1ccc(Cn2ccc(NC(=O)C3C4CCC(C4)C3C(=O)O)n2)cc1 (centres undefined)	inactive: 13.4%
Cc1ccc(NC(=O)c2sc(N)nc2-c2ccc([N+](=O)[O-])cc2)c(C)c1	inactive: -1.31%
Cc1ccc2c(c1)C(=O)C(=O)N2Cc1ccc(OCCC(C)C)cc1	inactive: -6.7%
CCc1nc2nc(C)c(NS(=O)(=O)c3ccc(Cl)s3)c(=O)n2[nH]1	inactive: 11.2%
Cc1ccc(S(=O)(=O)c2c[nH]c3ccc(Cl)cc3c2=O)cc1	inactive: 4.86%
COc1ccc(C(=O)O)cc1NC(=S)NC(=O)/C=C/c1ccc(C(C)C)cc1	inactive: 2.28%
Cc1ccc(C)c(NC(=S)NNC(=O)c2cc3c(s2)CCC(C)C3)c1 (centres undefined)	inactive: 30.6%
COc1cc(/C=C/C(=O)c2ccc(C)c([N+](=O)[O-])c2)cc(OC)c1O	inactive: -12.4%
O=C(O)c1ccc(NCc2nc3ccccc3n2CCOc2ccccc2Cl)cc1	inactive: 12.6%
COCCNC(=O)c1ccc(S(=O)(=O)N2CCCc3ccccc32)cc1	inactive: 19.5%
CCCCn1c(N)c(N(C)C(=O)c2cc3c(F)cccc3s2)c(=O)[nH]c1=O	inactive: 30.2%

Compound	growth rescue (activation)
C/C(=N\NC(=O)CNC(=O)c1ccccc1Br)c1ccco1	inactive: 15.7%
CC(=O)N1CCC(N(CCN2CCOCC2)C(=S)Nc2c(C)cccc2C)CC1	inactive: 22%
Cc1ncc(CN2CCN(C(C)C)C(CCO)C2)s1 (centres undefined)	inactive: 4.16%
CC(=O)OCC(=O)Nc1ccc(SC(F)F)cc1	inactive: 4.64%
CC(C)CC1(C)NC(=O)N(Cc2cc([N+](=O)[O-])cc3c2OCOC3)C1=O (centres undefined)	inactive: 14.5%
CNC(=O)C1=C(C)NC(=S)NC1c1cccs1 (centres undefined)	inactive: 5.69%
O=C(c1cccs1)N1CCC2(O)CCCCC2C1c1ccc(F)cc1 (centres undefined)	inactive: 11.8%
CC(C)(O)C#Cc1ccc(C(=O)NCc2ccccc2F)cc1	inactive: -11.4%
O=C(NC1CCN(C(=S)NCCc2ccccc2)CC1)C1CC1	inactive: 5.4%
Cn1nnnc1SCC(=O)Nc1ccc(C(=O)N2CCN(Cc3ccccc3F)CC2)cc1	inactive: 15.7%
Cc1c(CCOC(=O)c2ccc(N3CCOCC3)c([N+](=O)[O-])c2)sc[n+]1CC#N	inactive: 9.95%
Cc1cc(Cl)ccc1NC(=S)N1CCOCC1	inactive: -5.34%
CC(C)N(Cc1ccccc1)C(=O)COC(=O)C1CCCCC1	inactive: 26.6%
O=C(O)C1CCCCC1C(=O)Nc1ccc2c(c1)OCO2 (centres undefined)	inactive: 8.07%
CCOC(=O)c1ccc(NC(=S)Nc2ccc3[nH]c(=O)[nH]c3c2)cc1	inactive: 31.4%
N#Cc1ccccc1S(=O)(=O)N1CCN(C(=O)C2CCCC2)CC1	inactive: 3.84%
Cc1ccc(NC(=O)Cn2c(=O)cnc3ccccc32)cc1S(=O)(=O)N(C)C	inactive: 12.3%
COc1ccc(OC)c(S(=O)(=O)N2Cc3ccccc3CC2C(=O)Nc2ccc(C)cc2C)c1 (centres undefined)	inactive: 25.3%
CC(C)C(=O)N1CCCC1(C)C(=O)Nc1ccc(F)cc1 (centres undefined)	inactive: -7%
COc1cc(NC(=O)CN2CCCCC2)c(C)cc1[N+](=O)[O-]	inactive: -0.833%
CN(Cc1ccccc1)C(=S)NC(=O)c1ccccc1	inactive: -7.13%
CN(CC(=O)Nc1ccc(N2CCOCC2)cc1)C(=O)c1ccc(CS(C)(=O)=O)cc1	inactive: -33.3%

Compound	growth rescue (activation)
O=c1cccccc1NN=C1CCCCC1	inactive: -11.5%
CCC(=O)Nc1ccc(C(=O)c2ccccc2)cc1	inactive: 17.4%
CCOc1ccc(N(Cc2ccccc2)C(=O)c2nc(SCC)ncc2Cl)cc1	inactive: -8.17%
CC(=O)Nc1cccc(-c2ccnc3c2CC(C)(C(=O)Nc2cccc(OC(F)(F)F)c2)O3)c1 (centres undefined)	inactive: 15.6%
COC(=O)c1ccccc1NC(=S)NC(=O)COc1ccc(C(C)C)cc1	inactive: -6.43%
Cc1ccccc1C(=O)NC(=S)NCCN1CCOCC1	inactive: 12.4%
Cc1ccc(N2C(=S)SC3CS(=O)(=O)CC32)cc1 (centres undefined)	inactive: 5.11%
COc1cc(/C=C/c2cccc[n+]2C)ccc1OCC(=O)Nc1ccccc1C	inactive: -0.124%
CN1CCC(=NNC(=O)C(=O)Nc2ccccc2F)CC1	inactive: -8.15%
COc1ccc(CC(N)c2csc(NC(=O)c3ccc(F)cc3)n2)cc1 (centres undefined)	inactive: 9.67%
Cc1cc(C)nc(N/N=C/c2c(C)oc3ccccc23)n1	inactive: 13.5%
O=C(CCNc1ccc(Cl)cc1)c1cccs1	inactive: 7.53%
CCNS(=O)(=O)c1ccc(C(=O)OCc2cc(=O)oc3cc(OC)ccc23)cc1	inactive: 1.84%
Cc1ccc(C(=O)N2CCCC2)cc1S(=O)(=O)Nc1cccc(C)c1C	inactive: -1.92%
c1coc(-c2ccnc(-n3cccc3)n2)c1	inactive: 5.84%
COc1ccc(OC)c(S(=O)(=O)N2CCCC(C(=O)N3CCC(C(N)=O)CC3)C2)c1 (centres undefined)	inactive: 24.6%
COc1ccc(OC2C(=O)N(c3cc(C)ccc3C)C2c2ccc(OC)c(OC)c2)cc1 (centres undefined)	inactive: 27.9%
Oc1nc(-c2ccc(Cl)cc2)n2ccncc12	inactive: -2.25%
Cc1nc2ccc(N=NC3=C(O)CC(C)(C)CC3=O)cc2s1	inactive: 18.3%
Cc1ccc(N2CC(C(=O)N3CCOCC3)CC2=O)cc1Cl (centres undefined)	inactive: 0.531%
O=C(Nc1ccc(Cl)cc1)c1ccc2sc([C@@H]3O[C@H](CO)[C@H](O)[C@H](O)[C@H]3O)nc2c1	inactive: 9.09%
Cc1csc(NC(=O)c2ccc(C)o2)n1	inactive: 11.8%

Compound	growth rescue (activation)
C[C@@H](C(=O)Nc1ccc(SC(F)F)cc1)N1C(=O)C2CCCCC2C1=O (some centres undefined)	inactive: 4.92%
CNC(=O)c1oc(-c2ccccc2)nc1C	inactive: 8.14%
CCOC(=O)Cn1c(C)[n+](CC(=O)c2ccccc2)c2ccccc21	inactive: -7.46%
CCOC(=O)C1CCN(C(=O)C2CCCN2S(=O)(=O)c2ccc(Cl)cc2)CC1 (centres undefined)	inactive: -3.82%
N#C/C(=C\c1ccccc1Cl)C(=O)Nc1ccccn1	inactive: 7.55%
COCCNC(=O)CN(C(=O)c1ccc(N2CCCC2)nc1)c1ccc(F)c(Cl)c1	inactive: 14.6%
C[C@H](NC(=O)CCCn1nnc2ccccc2c1=O)C(=O)O	inactive: -2.79%
COc1ccc(-c2nnc(-c3ccc(C)cc3)o2)cc1	inactive: 20.3%
COc1ccccc1OCc1nnc(-c2ccccc2)o1	inactive: 14.7%
COc1cccc(/C=N/NC(=O)C[n+]2ccccc2)c1OC	inactive: -3.07%
COC(=O)c1sc(N/N=C/c2ccc(C(C)C)cc2)nc1C	inactive: 10.4%
O=C(O)Cc1ccc(NC(=O)c2cnccn2)cc1	inactive: 8.01%
CCCc1nnc(SCC(=O)NC2CC2)n1CC	inactive: 3.79%
O=C(O)C1C2CCC(O2)C1C(=O)NCc1ccccc1Br (centres undefined)	inactive: -0.981%
Cc1cc(C)cc(N(CCC#N)C(=O)CSc2nc3ccccc3c(=O)[nH]2)c1	inactive: -4.84%
COc1cccc(/C=N/NC(=S)Nc2cccnc2)c1	inactive: 34%
N=c1c(S(=O)(=O)c2ccccc2)cc2c(=O)n3ccccc3nc2n1CCCN1CCOCC1	inactive: 15.5%
N#CCCN(NC1=NS(=O)(=O)c2ccccc21)C(=O)c1ccccc1Br	inactive: -17.2%
Cc1[nH]c2ccccc2c1/C=N/NC(=O)c1cccc(S(=O)(=O)Nc2ccccc2Cl)c1	inactive: 2.09%
COc1ccc(C(=O)OCC(=O)NCc2ccc3c(c2)OCO3)cc1[N+](=O)[O-]	inactive: 22%
CCn1c(CC(=O)Nc2ccccc2OC)nnc1SCC(=O)Nc1ccccc1F	inactive: 9.18%
C=CCc1c(C)nc(-c2ccccc2)nc1Nc1ccccc1O	inactive: 20.8%

Compound	growth rescue (activation)
Cc1cc(C)nc(N/N=C/c2cccc([N+](=O)[O-])c2)n1	inactive: 21%
O=C(Cc1cnc2ncnn2c1)N1CCc2c([nH]c3ccccc23)C1c1ccccc1F (centres undefined)	inactive: 7.91%
COc1ccccc1C(=O)NCC(=O)OCC(=O)NNC(=O)c1ccc(Br)cc1	inactive: -1.33%
COc1ccc(CCn2c(-c3ccc(Cl)cc3)n[nH]c2=S)cc1OC	inactive: 11.9%
CCCCN(CC)CCCNC(=O)CN1C(=O)CSc2ccc(S(=O)(=O)N3CCOCC3)cc21	inactive: 8.65%
Cn1c(=O)[nH]c(=O)c2c1nc(Sc1nc3ccccc3s1)n2Cc1ccccc1	inactive: 16.5%
CC(C)C(=O)OC1CCS(=O)(=O)c2sccc21 (centres undefined)	inactive: 9.27%
Cc1cccc(-n2c(C)c(C)c3c(N)ncnc32)c1	inactive: 3.8%
Cc1cc(C)nc(N2CCN(C(=O)CCC(=O)Nc3nnc(CC(C)C)s3)CC2)n1	inactive: 2.96%
Cc1ccc(C(=O)Nc2ccc3ncccc3c2)cc1	inactive: -21.9%
CC1CCCCC12NC(=O)N(CC(=O)OCc1ccccc1Cl)C2=O (centres undefined)	inactive: 12.3%
C=CCNC(=S)Nc1ccc2cn[nH]c2c1	inactive: 23.3%
Cn1ncc(Br)c1C(=O)NC1CCCCC1	inactive: 5.1%
O=C(COC(=O)COc1ccccc1)Nc1ccc(Br)cc1Br	inactive: 17.1%
OC[C@@H]1CN(Cc2ccc(Cl)cc2)C[C@H](n2cnc3c(NCc4ccco4)ncnc32)O1	inactive: -2.55%
CCC(C)(C)C1CCc2nc3ccccc3c(C(=O)OC(C)C(=O)Nc3c(C)n(C)n(-c4ccccc4)c3=O)c2C1 (centres undefined)	inactive: 12.6%
CCN(CC)S(=O)(=O)c1ccc(O)c(NS(=O)(=O)c2ccccc2F)c1	inactive: 2.35%
O=C(O)CCCn1cc(NC(=O)c2ccco2)cn1	inactive: -11.4%
CC(=O)c1ccc(NC(=S)NNC(=O)c2ccncc2)cc1	inactive: 10.9%
COc1cc(NC(=O)C2CC(c3c(F)cccc3Cl)=NO2)cc(OC)c1OC (centres undefined)	inactive: 18.2%
O=C(CNc1ccc(F)cc1)N/N=C/C1CC=CCC1 (centres undefined)	inactive: 8.41%
